Data published in publication PMC4336329 (PLoS ONE, 2015).
Hit rate of the full screen: of about 310,000 compounds, about 14,000 (4.5%) showed an effect of 50% or more. The effect is printed as a negative number. Some of the results follow. Where a SMILES comes first, the peptide text is derived from it. [ ]: non-standard residue; d: D form. The star is where a group is joined. ξ: configuration not given here. ξPhe(4-Me) = Cc1ccc(CC(N)C(=O)O)cc1; Bz = O=C(c1ccccc1)*

These compounds were tested against human ether-à-go-go-related gene (hERG) potassium channel (human, UniProt Q12809) (assay: primary screen, population patch clamp on CHO cells stably expressing hERG).
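Also: peak tail current of the secondary pulse compared with the same well before compound.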

Sequence of human ether-à-go-go-related gene (hERG) potassium channel (Q12809 whole entry, looked up): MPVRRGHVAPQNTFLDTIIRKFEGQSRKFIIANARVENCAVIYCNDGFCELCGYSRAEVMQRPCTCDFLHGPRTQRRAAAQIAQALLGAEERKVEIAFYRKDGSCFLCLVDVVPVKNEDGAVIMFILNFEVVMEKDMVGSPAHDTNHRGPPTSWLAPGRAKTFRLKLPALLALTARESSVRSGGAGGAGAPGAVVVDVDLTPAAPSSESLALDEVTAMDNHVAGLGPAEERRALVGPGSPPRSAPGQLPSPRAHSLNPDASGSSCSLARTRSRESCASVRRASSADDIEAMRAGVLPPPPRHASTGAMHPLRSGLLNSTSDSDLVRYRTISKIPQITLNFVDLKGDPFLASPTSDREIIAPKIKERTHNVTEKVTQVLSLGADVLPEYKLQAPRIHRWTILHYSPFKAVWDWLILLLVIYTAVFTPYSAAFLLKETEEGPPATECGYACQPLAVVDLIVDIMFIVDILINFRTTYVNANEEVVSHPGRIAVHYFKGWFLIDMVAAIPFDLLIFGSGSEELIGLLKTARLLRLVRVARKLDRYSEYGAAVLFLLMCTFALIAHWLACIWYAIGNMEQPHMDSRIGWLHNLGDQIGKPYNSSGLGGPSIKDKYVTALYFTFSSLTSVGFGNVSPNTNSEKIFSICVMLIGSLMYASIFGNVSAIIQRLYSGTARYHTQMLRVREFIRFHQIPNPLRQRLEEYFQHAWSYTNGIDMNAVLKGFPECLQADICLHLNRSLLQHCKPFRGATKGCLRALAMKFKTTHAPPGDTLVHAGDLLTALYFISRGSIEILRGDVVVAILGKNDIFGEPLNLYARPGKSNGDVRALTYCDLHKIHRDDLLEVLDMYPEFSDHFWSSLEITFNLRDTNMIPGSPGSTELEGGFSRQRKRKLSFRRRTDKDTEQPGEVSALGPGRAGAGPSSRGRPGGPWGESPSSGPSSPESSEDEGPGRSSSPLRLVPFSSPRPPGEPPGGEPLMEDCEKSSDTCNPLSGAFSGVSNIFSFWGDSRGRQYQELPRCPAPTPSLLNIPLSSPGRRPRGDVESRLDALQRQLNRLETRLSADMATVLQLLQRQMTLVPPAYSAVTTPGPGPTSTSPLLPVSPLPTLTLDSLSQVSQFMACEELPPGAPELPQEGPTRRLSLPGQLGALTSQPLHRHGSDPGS

Row | SMILES | hERG current change (%, negative = inhibition) at 10uM [%]
1 | CC(C)[C@H](NS(=O)(=O)c1ccccc1)C(=O)OCC(=O)Nc1ccc2c(c1)OCO2 | -22.1
2 | O=C(Cc1cccs1)NCc1ccccc1F | -3
3 | Cn1c(C(=O)N2COCC2(C)C)cc2c(=O)n3ccccc3nc21 | -1.15
4 | N#Cc1c(-c2ccccc2)nc(N2CCN(Cc3ccccc3)CC2)[nH]c1=O | 13.6
5 | CCn1cc([N+](=O)[O-])c(C(=O)N2N=C(c3ccc4ccccc4c3)CC2c2ccccc2O)n1 (stereo not shown) | 3.19
6 | Cc1nnc(SCC(=O)NCc2cccs2)n1-c1ccccc1 | 1.68
7 | O=S(=O)(c1ccc(F)cc1)N1CN2CCN(C2)C1 | 7.75
8 | Nc1ccccc1-c1ccccc1N | 15.2
9 | COc1ccc(NC(=O)CCN2C(=O)c3cccc([N+](=O)[O-])c3C2=O)cc1 | -5.08
10 | C/C(=N\Nc1ccc(C(=O)O)cc1)c1ccc(Br)cc1.O=S(=O)(O)O | 23
11 | O=C(Nc1nccs1)c1cc(-c2ccncc2)nc2ccccc12 | 1.89
12 | CSC1=NCCN1C(=O)c1ccc(S(=O)(=O)N2CCCC2)cc1 | 10.1
13 | COc1ccccc1NC(=O)COc1ccc(/C=N/NC(=O)CSCc2cc(C)cc(C)c2)cc1 | 3.56
14 | Cc1ccccc1C(=O)NNC(=O)CCC(=O)Nc1cccc(Cl)c1C | -18.3
15 | COCCN(Cc1nc(C2(c3ccc(C)cc3)CCCC2)no1)C(C)C | 0.613
16 | Cn1c(=O)c(-c2ccccc2)c(O)c2ccccc21 | 1.91
17 | CCN1CCN(CC(=O)N2N=C(c3ccc(OC)cc3)CC2c2ccc(OC)cc2)C(=O)C1=O (stereo not shown) | 3.87
18 | COc1cc(-c2cc(N)n(S(=O)(=O)c3ccccc3)n2)cc(OC)c1OC | 7.46
19 | CCCC(C)n1[nH]c(=O)c2c1NC(=O)CSC2c1ccc(OC)cc1 (stereo not shown) | 1.91
20 | COc1cccc(C(=O)NNC(=O)c2ccc(NS(=O)(=O)c3cccs3)cc2)c1OC | 0.566
21 | CCCc1cc(=O)[nH]c(SCc2cccc(C)c2)n1 | 7.44
22 | COc1cc(C(=O)O[C@H]2CC(C)=CC[C@@]3(C)CC[C@@](O)(C(C)C)[C@H]23)ccc1O | 14.4

Row | SMILES | hERG current change (%, negative = inhibition) at 10uM [%]
23 | COc1cc(SC)ccc1C(=O)N(C)Cc1ccccc1 | -17.5
24 | Oc1ccc2c(c1)c1c3n2CCNC3CCC1 (stereo not shown) | -8.45
25 | Cc1ccc(-c2nn(-c3ccccc3)cc2C(=O)Nc2ccc(C(=O)O)cc2)cc1 | 19.1
26 | COC(=O)C1=C(C)Nc2nc3ccccc3n2C1c1cc(OC)c(OC)c(OC)c1 (stereo not shown) | 1.96
27 | CCOC(=O)C1CCN(C(=O)Nc2cc(Cl)cc(Cl)c2)CC1 | -15.7
28 | CC(=O)c1ccc(NC(=O)Nc2cccc(Cl)c2)cc1 | 12.2
29 | O=C(NCC(=O)N1CCN(S(=O)(=O)c2ccc3c(c2)OCCO3)CC1)c1ccccc1Cl | 11.7
30 | Cc1nn(CCO)c(N)c1C1(O)C(=O)Nc2c(Cl)cc(Cl)cc21 (stereo not shown) | 17.8
31 | CC(C)N1CCc2c(sc(NC(=O)c3ccc4ccccc4c3)c2C(N)=O)C1.Cl | -3.95
32 | O=C(CCN1C(=O)c2ccccc2C1=O)NNC(=O)c1ccc(Cl)cc1Cl | 6.82
33 | Cc1cc(C(F)(F)F)nc(Nc2nc(C)c3ccccc3n2)n1 | 6.9
34 | Cn1c(Cc2cccs2)nnc1SC/C=C/c1ccccc1 | -0.882
35 | CCOc1ccc(N2C(=O)CC(NCCNc3ccc(C(=O)c4cccs4)cc3)C2=O)cc1 (stereo not shown) | -71.5
36 | Cn1c(C(=O)N2CCOCC2)cc2c(=O)n3ccccc3nc21 | 10.3
37 | COc1ccc(Nc2nc(N3CCCC3)nc(N3CCCC3)n2)c(OC)c1 | 2.29
38 | Cc1nn(C)c(C)c1C(C)NC(=O)c1ccc(OC2CCN(Cc3ccccn3)CC2)cc1 (stereo not shown) | 18
39 | NNC(=O)c1ccc(Cn2cc(Br)cn2)cc1 | -2.07
40 | C=CCc1cccc2cc(C(=O)Nc3cccc(C(=O)O)c3)c(=O)oc12 | -5.14
41 | CC(=O)Nc1ccc(Nc2nc(-c3sc(C)nc3C)cs2)cc1 | 13.5
42 | O=C1C(NS(=O)(=O)c2ccc(Br)cc2)=C(N2CCCCC2)C(=O)c2ccccc21 | -33.1
43 | CCOC(=O)C1CCN(C(=O)c2cc(COc3ccc(OC)c4ccccc34)on2)CC1 | 4
44 | CN(C)c1ccc(P(=O)(OC2CCCCC2)C(O)c2ccccn2)cc1 (stereo not shown) | -0.561

Row | SMILES | hERG current change (%, negative = inhibition) at 10uM [%]
45 | Cn1c(=O)c2c(ncn2CC(=O)NC(C)(C)C)n(C)c1=O | 9.95
46 | COc1cc(C(=O)N/N=C/c2ccc(OC(=O)c3cccc(C)c3)cc2)ccc1O | 11.8
47 | O=C(Nc1ccc(Br)cc1)c1ccc(N2C(=O)C3CC=C(Cl)CC3C2=O)cc1 (stereo not shown) | 5.08
48 | COCCCN(C(=O)c1ccc(N2CCCC2=O)cc1)c1c(N)n(Cc2ccccc2)c(=O)[nH]c1=O | -1.8
49 | Cc1cc(Cl)ccc1NC(=S)NCCc1ccc(S(N)(=O)=O)cc1 | -16.1
50 | Cl.Nc1ccc(Cc2ccccn2)cc1 | 15.1
51 | CC1CCC(C(C)C)C(OC(=O)Cn2nnc3c(cnn3-c3ccccc3)c2=O)C1 (stereo not shown) | 3.74
52 | COc1ccc(OC)c(C2N(c3cc(C)on3)C(=O)C3CCCN32)c1 (stereo not shown) | 10.8
53 | Cc1nn(C)c(Cl)c1S(=O)(=O)N[C@@H](c1ccccc1)[C@]1(C)C[C@H]1[C@@H](C)C(=O)Nc1ccc2ccccc2c1 | 12.8
54 | CCCn1c(=O)c(C(=O)NCCCc2ccccc2)c(O)c2ccccc21 | 10.6
55 | COc1ccc(CCN2CC(C(=O)N(C)CCOc3ccccc3)CCC2=O)cc1 (stereo not shown) | -57.2
56 | COc1cc(NC(=O)CCC(=O)Nc2ccc3nc(N4CCOCC4)cc(C)c3c2)cc(OC)c1OC | -15.1
57 | CCc1cccc(C)c1NC(=S)NCc1ccc2[nH]c(C)cc2c1 | -12.3
58 | Cc1ccc(CC(NC(=O)c2ccccc2)C(=O)NCC(=O)O)cc1 (stereo not shown) (Bz-[ξPhe(4-Me)]-Gly-OH) | -9.56
59 | Cc1ccc(S(=O)(=O)N(C)CC(=O)Nc2nc3ccccc3s2)cc1 | -12.1
60 | COc1ccc(CCNC(=O)c2ccc(CNS(=O)(=O)c3cc(C)ccc3C)cc2)cc1OC | -25.7
61 | C=CCn1c(CCC(O)CCCCC)n[nH]c1=S (stereo not shown) | 7.84
62 | C=CCn1c(CCNC(=O)c2cccs2)nnc1SCC(=O)c1ccc(Br)cc1 | -67.1
63 | OCCn1c(SCCOc2ccccc2F)nc2ccccc21 | -12.3
64 | Cc1onc(-c2ccccc2)c1CNC(=O)CN1C(=O)c2ccccc2C1=O | 9.16
65 | Cc1cc(C)c(S(=O)(=O)N2CCN=C2c2ccccc2)c(C)c1 | -2.7
66 | Cc1ccc(C)c(S(=O)(=O)NCCCn2ccnc2)c1 | -16.8

Row | SMILES | hERG current change (%, negative = inhibition) at 10uM [%]
67 | COc1ccc(C2N3CC4(C)CN2CC(C)(C3)C4=O)cc1OC (stereo not shown) | -3.38
68 | COc1ccc(OC)c(C(C)NC(=S)Nc2ccc(S(=O)(=O)Nc3ncccn3)cc2)c1 (stereo not shown) | 4.66
69 | O=C(O)Cc1ccc(O)c(O)c1 | -9.88
70 | COc1cc(/C=C/C(=O)O)cc(S(=O)(=O)Nc2ccccc2Cl)c1OC | 18.8
71 | Cn1c(=O)c2c(ncn2CC(=O)N2CCN(c3ccccc3)CC2)n(C)c1=O | 0.318
72 | Cc1ccc(CN(c2ccc(C(=O)NCc3ccccn3)cc2)S(C)(=O)=O)cc1 | -10.4
73 | CS(=O)(=O)N(CC(=O)N/N=C/c1cccc2c1OCCO2)c1ccccc1Br | 2.75
74 | CC1CCCCC1NC(=O)COc1ccc(-n2cnnn2)cc1 (stereo not shown) | -18.8
75 | Cc1cc(C)cc(OCc2nc3ncc(Br)cc3[nH]2)c1.Cl | 4.47
76 | O=C(O)COc1ccc(Br)cc1/C=C1/SC(=O)N(CC(=O)N2CCCC2)C1=O | 3.77
77 | CCOC(=O)c1csc(N/N=C2\CCCc3ccccc32)n1 | 20
78 | O=C(NCCCN1CCN(CCCNC(=O)c2cc([N+](=O)[O-])ccc2Cl)CC1)c1cc([N+](=O)[O-])ccc1Cl | -25.5
79 | O=C(NCCc1ccc(Cl)cc1)C1CCCN1C(=O)NCc1ccccc1 (stereo not shown) | -11.3
80 | FC(F)(F)c1nnc2sc(-c3ccco3)nn12 | 12.9
81 | Cc1cc(C)cc(N(CC(=O)Nc2cccc(C)n2)S(=O)(=O)c2c(C)noc2C)c1 | -25.5
82 | S=c1nc[nH]c2nc[nH]c12 | 18
83 | Cn1c(=O)oc2cc(S(=O)(=O)NC3CCCCCCC3)ccc21 | -20.7
84 | CC(=O)Cn1c(CN2CCN(C(=O)c3ccco3)CC2)nc2c1c(=O)n(C)c(=O)n2C | 16
85 | COc1ccc(CSCC(=O)Nc2ccccc2)cc1[N+](=O)[O-] | -4.56
